The text below walks through data of PubChem BioAssay AID1508624 (National Center for Advancing Translational Sciences (NCATS), 2021).

Screen size: about 48,000 compounds; about 120 (0.25%) were called active. Roughly 4% stayed inconclusive and do not appear here. Calls come from the whole dose curve; as a rule, active = well fitted activation curve with a large enough effect; inconclusive = small, poorly fitted or top-dose-only effect, or another doubt; inactive = no such curve, though single readings can be large or run the other way. This is one part of the list.

The nature of the assay: Primary qHTS for Identification of Small Molecule Activators of Huntingtin-Antisense Promoter Activity. Note: nearly all actives have a fitted effect of over 55% in size. Conditions: HEK293 HTT-AS promoter firefly luciferase reporter (activity 0% = vehicle and -100% = no light), 24 h; series mostly up to 57.5 µM; activity change, positive = activation: at the top concentration. The gist of the method:
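HEK293 luciferase promoter-reporter cells (2,500/well) plated 24 h, then compounds added at up to 57.5 uM final for 24 h at 37 °C. Firefly luminescence by Dual-Glo, normalized to vehicle (0%) and zero RLU (-100%).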
For orientation: Quantitative high-throughput screening tests each substance at several concentrations.
In the case of `COc1ccccc1N1CCN(C(=O)CN2C(=O)COc3ccc(S(=O)(=O)N4CCC(C)CC4)cc32)CC1`, the “activity change, positive = activation” value is inactive: -18.7%.
In the case of `Cc1ccc(NC(=O)C2CCN(c3cc(C)nc4c(-c5ccc(Cl)cc5)c(C)nn34)CC2)c(C)c1`, the “activity change, positive = activation” value was inactive: 5.41%.
`COc1ccc(C(=O)CSc2c(C(C)C)cnc3c2c(=O)n(C)c(=O)n3C)cc1`: the “activity change, positive = activation” value was inactive: -21.7%.
Turning to `CCOc1ccc(NC(=O)CSc2nc3c(oc4ccccc43)c(=O)n2CCOC)cc1`, the “activity change, positive = activation” value is inactive: -15.5%.
As for `Cc1ccn2c(=O)cc(COc3ccc(NC(=O)c4ccccc4F)cc3)nc2c1`, the “activity change, positive = activation” value is inactive: -4.32%.
For the molecule `Cn1ncc2nc(SCC(=O)Nc3ccc(Br)cc3F)n(Cc3ccccc3)c(=O)c21`, the “activity change, positive = activation” value was inactive: -29.5%.
With `Cc1ccc(NC(=O)C(Cc2c[nH]c3ccccc23)NC(=O)OCC(C)C)cc1` (stereo not given), the “activity change, positive = activation” value is inactive: 0.362%.
The value for `COc1ccc(/C=C\C(=O)NC2CC(=O)N(c3ccccc3)C2)cc1OC` (stereo not given) was inactive: -5.4%.
The value for `COc1cc(NC(=O)c2nc(-c3ccncc3)no2)cc(OC)c1OC` was inactive: -9.47%.
With `Cc1ccc(CN(C(=O)COc2c(C)cccc2C)C2CCS(=O)(=O)C2)o1` (stereo not given) the figure was inactive: -9.03%; with `COC(=O)c1nc2n(n1)C(c1cc(OC)ccc1OC)C(C(=O)Nc1ccc(C)cc1C)=C(C)N2` (stereo not given), inactive: -17.7%; with `Cc1ccc(Cl)cc1N1CCN(CCNC(=O)Nc2ccccc2Cl)CC1`, inactive: -34.2%.
For `CC(C)(C)C(=O)NCCc1csc2nc(-c3ccc(F)cc3)nn12`, the “activity change, positive = activation” value was inactive: -17.5%.
`Cc1ccc2oc3c(c(=O)c2c1)C1(C(=O)N(C)c2ccccc21)N(CCCO)C3=O` (stereo not given): the “activity change, positive = activation” value is inactive: -11.3%.
The value for `COc1ccc2oc(-c3ccc(C)c(NC(=O)COc4cc(C)cc(C)c4)c3)nc2c1` was inactive: 4.32%; that for `CSc1cccc(NC(=O)C2CCN(C(=O)c3cnn(-c4ccccc4)c3-n3cccc3)CC2)c1` was inactive: -49.1%; that for `CCc1ccc(-n2c(=O)c3c4c(sc3n(CC(=O)c3ccc(Cl)cc3)c2=O)CCC4)cc1` was inactive: -9.17%.
Consider `O=C(CCS(=O)(=O)c1cccc2nsnc12)Nc1ccc(F)cc1`, for which the “activity change, positive = activation” value was inactive: -12.7%.
With `Cc1ccc(Cl)cc1NC(=O)C(=O)NCC(c1cccnc1)N1CCc2ccccc21` (stereo not given) the figure was inactive: -29.1%.
With `Nc1ccc(O)c(C(=O)O)c1`, the “activity change, positive = activation” value is inactive: -6.48%.
`Cc1ccc(-c2cc(C(F)(F)F)c(C#N)c(SCC(=O)Nc3ccccc3)n2)cc1`: the “activity change, positive = activation” value was inactive: -7.5%.
The value for `CCOC(=O)C(C)NC(=O)c1c(C)oc2ncn(CC(C)C)c(=O)c12` (stereo not given) was inactive: 9.81%; that for `CCOC(=O)C1CCN(C(=O)c2ccc3c(=O)n4nc(Nc5cc(C)ccc5C)sc4nc3c2)CC1` was inactive: -25.9%.
With `Cc1ccc(CNC(=O)c2cc3c(=O)n(Cc4cccnc4)ccc3nc2C)cc1` the figure was inactive: -15%; with `CCOc1cccc(C2c3c(-c4cc(C)ccc4O)n[nH]c3C(=O)N2Cc2ccco2)c1` (stereo not given), inactive: -32.9%; with `COc1ccc(OC)c(CCNC(=O)c2csc3c2CCCCC3)c1`, inactive: -38.4%.
For the molecule `CCC(=O)C1=C(c2cccc(OC)c2)N(C(=O)CC)n2c(nnc2C2CCCCC2)S1`, the “activity change, positive = activation” value is inactive: -14.5%.
The value for `Cc1cccc(C)c1OCc1nc2c3c(-c4ccccc4)c(-c4ccccc4)oc3ncn2n1` was inactive: -8.06%; that for `COc1cccc(NC(=O)C2CCN(c3nn4cc(-c5ccc(F)cc5)nc4s3)CC2)c1` was inactive: -3.09%.
In the case of `CCn1cc(C(=O)N2CCN(c3ccc(C(C)=O)cc3)CC2)c2cc(OC)c(OC)cc2c1=O`, the “activity change, positive = activation” value was inactive: -15.4%.
With `Cc1ccc(NC(=O)Cn2c(=O)oc3cc(S(=O)(=O)NCc4ccccc4)ccc32)cc1` the figure was inactive: -31.2%; with `CCOc1ccc(CCNC(=O)CN2N=C(c3ccccc3)CCC2=O)cc1OCC`, inactive: -23.6%.
Regarding `c1cc(-c2sc(-c3ccncc3)c(-c3ccncc3)c2-c2ccncc2)ccn1`, the “activity change, positive = activation” value was inactive: -9.3%.
Regarding `Cc1ccc2nc(N(Cc3cccnc3)C(=O)CCS(=O)(=O)c3ccccc3)sc2c1`, the “activity change, positive = activation” value is inactive: 15.7%.
The value for `CC(=O)c1ccc(NC(=O)CSc2nc(-c3cccc(F)c3)nc3c2c(=O)n(C)c(=O)n3C)cc1` was inactive: -11.4%; that for `CN1C(C(=O)Nc2ccc(F)cc2F)=CC(c2ccc3c(c2)OCO3)=NS1(=O)=O` was inactive: -3.77%.
The value for `Cc1cc(C)cc(NC(=O)CN2C(=O)c3ccccc3Sc3ncccc32)c1` was inactive: -17.3%; that for `CCCCN(CC)CCCNC(=O)c1cc2c(=O)[nH]c3ccccc3c2s1` was inactive: -8.16%; that for `Cc1cc(NC(=O)C2=C(O)c3ccccc3S(=O)(=O)N2C)no1` was inactive: -12.8%.
The value for `COc1ccc(CNC(=O)c2ccc3c(c2)nc2n3CCOC2)c(OC)c1` was inactive: -6.93%; that for `Cc1ccc(CN(Cc2ccco2)C(=O)COc2ccc(C(C)C)cc2)cc1` was inactive: -22.3%.
With `COc1ccc(N2CC(NC(=O)CCCc3ccccc3)CC2=O)cc1` (stereo not given), the “activity change, positive = activation” value was inactive: -9.54%.
In the case of `COC(=O)c1ccccc1NC(=O)Nc1nnc(N2CCC(C)CC2)s1`, the “activity change, positive = activation” value is inactive: -0.404%.
Turning to `CCOc1cc(CNC(=O)NC2COc3ccc(OC)cc3C2)cc(OCC)c1OCC` (stereo not given), the “activity change, positive = activation” value is inactive: -14.5%.
The value for `Cc1cccc2c1-c1sc(C(=O)N(C)c3cccc(C(F)(F)F)c3)cc1CO2` was inactive: -22.5%.
The value for `Cc1csc2nc(COc3ccccc3NC(=O)c3ccc(C(C)(C)C)cc3)cc(=O)n12` was inactive: 2.6%; that for `CCNC(=O)c1nn(-c2ccccc2C)nc1CO` was inactive: 4.81%.
The value for `CC(=O)C1=C(c2ccc(C)c(C)c2)N(C(C)=O)n2c(nnc2-c2ccc(Cl)cc2)S1` was inactive: -2.91%; that for `Cc1cccc(CNC(=O)CCCn2c(=O)c3cccn3c3ccc(F)cc32)c1` was inactive: -20.6%; that for `O=C(Cn1c(=O)n(-c2ccccc2Cl)c(=O)c2sc3ccccc3c21)NC1CCCCC1` was inactive: -12.6%.
Regarding `Cc1ccc(CN2CCN(CC(=O)Nc3ccc(C)c(C)c3)S2(=O)=O)cc1`, the “activity change, positive = activation” value is inactive: -22.1%.
The value for `Cc1ccccc1-n1nc(CO)c(C(=O)NCc2cccs2)n1` was inactive: -32.9%.
The value for `N#Cc1cccc(NC(=O)C2CCN(S(=O)(=O)c3ccc4[nH]c(=O)ccc4c3)CC2)c1` was inactive: -3.29%; that for `Cc1ccccc1OC(=O)CSc1nnc(-c2ccc(F)cc2)o1` was inactive: -1.94%; that for `Cc1c(NC(=O)c2nc3ccccc3nc2N2CCCCC2)cccc1[N+](=O)[O-]` was inactive: -16.7%.
As for `COC(=O)N1CCN(Cc2cccc(NC(=O)Nc3ccc(C)nc3)c2F)CC1`, the “activity change, positive = activation” value was inactive: -24.4%.
Consider `Cc1c(C)c2c(c(C)c1OC(=O)c1cccnc1)CC[C@@](C)(CCC[C@H](C)CCC[C@H](C)CCCC(C)C)O2`, for which the “activity change, positive = activation” value is inactive: -4.22%.
The value for `COc1ccccc1C(=O)NCc1nnnn1-c1ccc(C)c(C)c1` was inactive: -9.99%; that for `COc1ccc(-c2csc(-c3nc(-c4ccc(Br)s4)cs3)n2)cc1F` was inactive: -14.4%.
With `CCC1CCCCN1CCCNC(=O)c1c(O)nc2ccccn2c1=O` (stereo not given) the figure was inactive: -2.85%.
With `CCCC1=Nc2cc(C(=O)NCCc3ccc(OCC)cc3)ccc2Sc2ccccc21` the figure was inactive: -21.1%.
Take `COc1cccc(CN2C(=O)c3ccccc3Sc3ccc(C(=O)NCCc4ccc(C)cc4)cc32)c1`: the “activity change, positive = activation” value is inactive: -16.7%.
Take `O=C(NCc1ccc2c(c1)OCO2)c1ccc2c(c1)N(Cc1cccc(Cl)c1)C(=O)c1ccccc1S2=O` (stereo not given): the “activity change, positive = activation” value was inactive: -12.1%.
For the molecule `Cc1c(Cl)cccc1NC(=O)C1CCCN(c2nnc(-n3c(C)ccc3C)s2)C1` (stereo not given), the “activity change, positive = activation” value is inactive: -8.89%.
With `CCN(CCCNC(=O)c1ccc(Sc2ccc(F)cc2)c(NC(C)=O)c1)c1ccccc1` the figure was inactive: -25.4%; with `O=C(NCC(c1ccc2c(c1)OCO2)N1CCN(c2ccccc2)CC1)C(=O)Nc1cccc(F)c1` (stereo not given), inactive: -8.18%; with `CCN(CC)C(=O)CSc1nc2cc3c(cc2c(=O)n1CCCCCC(=O)NCc1ccc(OC)cc1)OCO3`, inactive: -6.06%.
As to `COc1ccc(CNC(=O)Cn2c(=O)nc(-c3ccccc3F)c3cc(Cl)ccc32)cc1`, the “activity change, positive = activation” value was inactive: -3.1%.
With `Cc1ccc(-c2nc3c(C)cccn3c2Nc2ccccc2C)s1` the figure was inactive: -10.5%; with `Cc1ccc(F)cc1NC(=O)Cn1c(=O)nc(-c2ccccc2F)c2cc(Cl)ccc21`, inactive: 9.98%; with `COc1ccc(C2=C(C)C(=O)N(Cc3ccc(C(=O)Nc4cccc(F)c4)cc3)S2(=O)=O)cc1`, inactive: -41%.
For `CC1CCCN(c2nc3c(S(=O)(=O)c4ccc(C(C)C)cc4)nnn3c3ccsc23)C1` (stereo not given), the “activity change, positive = activation” value is inactive: -8.69%.
The value for `CCCCCn1c(=O)[nH]c2cc(C(=O)N3CCN(c4cc(Cl)ccc4C)CC3)ccc2c1=O` was inactive: -15.5%; that for `CCOc1ccc(CCn2c3c(c(=O)[nH]c2=O)C(NC(=O)c2ccccc2)(C(F)(F)F)C(=O)N3)cc1OCC` (stereo not given) was inactive: 2.64%; that for `CCOC(=O)N1CCC(NC(=O)c2ccc3c(c2)N(Cc2cc(C)ccc2C)C(=O)c2ccccc2S3(=O)=O)CC1` was inactive: -23.4%.
The value for `CCOC(=O)c1c(S(=O)(=O)NCC(=O)Nc2cc(C)ccc2OC)c(C)n(C)c1C` was inactive: -10.5%; that for `Cc1ccc(C(=O)OCc2cc(=O)n3nc(-c4cccs4)sc3n2)cc1` was inactive: 3.15%; that for `COc1ccc(NC(=O)CSc2nc3ccccc3nc2Cc2ccc(C)cc2)cc1Cl` was inactive: -8.29%.
The value for `O=C(Cn1cc(SCc2ccccc2F)c2ccccc21)N1CCCCCC1` was inactive: -4.83%.
With `COc1ccccc1NC(=O)Cn1c(=O)n(Cc2cccs2)c(=O)c2cccnc21`, the “activity change, positive = activation” value is inactive: -36.1%.
For `CCN(CC)c1ccc2cc(-c3nc(-c4ccc(Cl)cc4Cl)cs3)c(=O)oc2c1`, the “activity change, positive = activation” value is inactive: 8.33%.
With `CCOC(=O)c1ccc(Nc2nc3nonc3nc2Nc2cccc(C)c2C)cc1` the figure was inactive: -87.4%; with `Cc1nc(-c2ccccc2)sc1-c1ccc(SCC(=O)NCc2ccccc2)nn1`, inactive: -4.65%; with `Cc1cccc(NC(=O)Cn2cc(C(=O)C3CCCCC3)c3ccccc32)c1C`, inactive: -58.4%.
As to `COc1ccccc1C(=O)N1CCCCC1CCN1CCOCC1` (stereo not given), the “activity change, positive = activation” value was inactive: -3.31%.
Consider `O=C(Nc1ccc(-c2nc3cc(NC(=O)c4ccccc4F)ccc3o2)cc1)c1ccccc1F`, for which the “activity change, positive = activation” value was inactive: -16.8%.
With `N#Cc1ccccc1NC(=O)CSc1ncn[nH]1` the figure was inactive: -2.18%; with `CCCCCCCC/C=C\CCCCCCCC(=O)NCc1ccc(O)c(OC)c1`, inactive: -9.49%; with `CCOc1ccc(C(=O)c2cn(CC(=O)Nc3ccc4c(c3)OCCO4)c3ccc(OC)cc3c2=O)cc1`, inactive: -18.6%.
With `Cc1ccc(CNC(=O)C(=O)NCC(c2cccnc2)N2CCN(c3ccc(F)cc3)CC2)cc1` (stereo not given) the figure was inactive: -50.3%.
With `O=C(NCc1ccccc1)c1cc2sccc2n1Cc1ccc(F)cc1` the figure was inactive: -19.6%; with `Cn1c(=O)c2c(nc(Oc3ccc(F)cc3)n2Cc2ccc(F)cc2)n(C)c1=O`, inactive: -6.63%; with `COc1ccccc1NC(=O)c1sc2nc(C)c(C(=O)Nc3ccc(C)cc3C)c(-c3ccc(Br)cc3)c2c1N`, inactive: 6.63%.
In the case of `Cc1ccccc1CNC(=O)Cn1ccc2cc(S(=O)(=O)N3CCCCC3)ccc21`, the “activity change, positive = activation” value was inactive: -41.5%.
With `CC(C)=CCCC(C)=CCCC(C)=CCSc1ccccc1C(=O)O` the figure was inactive: -29.6%.
